Source: PubChem BioAssay AID1508624 (National Center for Advancing Translational Sciences (NCATS), 2021)
Among all 48,000 compounds or so, about 120 (0.25%) were called active. Inconclusive results (about 4%) are left out. Calls come from the whole dose curve; as a rule, active = well fitted activation curve with a large enough effect; inconclusive = small, poorly fitted or top-dose-only effect, or another doubt; inactive = no such curve, though single readings can be large or run the other way. Some of the results follow.

Test: Primary qHTS for Identification of Small Molecule Activators of Huntingtin-Antisense Promoter Activity; note: nearly all actives have a fitted effect of over 55% in size
Settings: HEK293 HTT-AS promoter firefly luciferase reporter, 24 h; series mostly up to 57.5 µM; activity change, positive = activation: at the top concentration
Method in brief: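 Quantitative HTS used concentration series of up to 57.5 uM final on HEK293 luciferase reporter cells, 24 h at 37 degrees C. Readout was Dual-Glo firefly luminescence.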

Compound | activity change, positive = activation
COc1ccc(-c2cc(C(F)(F)F)nc(SCC(=O)N3CCCCC3)n2)cc1OC | inactive: -20.1%
CCS(=O)(=O)N1CCc2cc(C(=O)N3CCN(c4ccc(OC)cc4)CC3)ccc21 | inactive: -5.8%
COc1ccc(OC)c(S(=O)(=O)N2Cc3ccccc3CC2C(=O)Nc2ccc(C)cc2C)c1 (centres undefined) | inactive: -30.3%
CCc1cccc(C)c1NC(=O)C(CC)n1nc(C)c2c(C)n(-c3ccccc3)nc2c1=O (centres undefined) | inactive: -8.71%
COc1ccc(-c2nc(SCC(=O)Nc3ccccc3)c(-c3ccc(F)cc3)[nH]2)cc1OC | inactive: -15.4%
O=C(Cn1c(=O)n(-c2ccccc2)c(=O)c2ccc(C(=O)NCc3ccc4c(c3)OCO4)cc21)Nc1ccc(F)cc1 | inactive: -44.7%
COC(=O)c1ccc(CSc2nc3c([nH]c4ccccc43)c(=O)n2-c2ccc(F)cc2)o1 | inactive: -34.8%
CCc1cccc(NC(=O)Cn2c(=O)n(-c3ccccc3C)c(=O)c3c2c2cc(C)ccc2n3C)c1 | inactive: -34.4%
COc1cc(OC)c(NC(=O)Cn2c(=O)c(C(F)(F)F)nc3ccccc32)cc1Cl | inactive: -5.06%
Cc1ccc(CNC(=O)c2ccc(CS(=O)(=O)Cc3ccc(F)cc3)o2)cc1 | inactive: -21%
CCCCc1nn2c(=O)cc(COC(=O)c3cccc(NC(=O)c4cccc(Cl)c4)c3)nc2s1 | inactive: 21.1%
Cc1ccccc1CN1CCc2nc(N3CCN(c4ncccn4)CC3)ncc2C1 | inactive: -25.5%
COc1ccc(CCCc2nnc(SCC(=O)Nc3cccc(C)c3)o2)cc1C | inactive: 20.8% [at 11.5 µM, percent change from vehicle, -100% = no light]
CCCCN(C)CCCNC(=O)Cn1ncc2c3ccccc3n(Cc3cccc(Cl)c3)c2c1=O | inactive: -18.6%
Cc1cccc(N2CCN(S(=O)(=O)c3cn(C)c(C)n3)CC2)c1C | inactive: -22.2%
CCOc1ccccc1C(=O)Oc1c(S(=O)(=O)c2ccc(C)cc2)c(C)nn1-c1ccccc1 | inactive: -30.8%
CC(=O)Oc1ccc(C)cc1 | inactive: 2.81%
COc1ccc(-c2cc(OC(=O)c3ccc(F)cc3)c3c(C)oc(C)c3c(=O)c2)cc1OC | inactive: -14.9%
COc1ccc(-c2noc(CSc3nnc(-c4ccccc4)n3-c3ccc(F)cc3)n2)c(OC)c1 | inactive: -27.2%
Cc1ccc(Cc2c(C)nn(-c3nc(C)c(C(=O)N4CCCCC4C)s3)c2C)cc1 (centres undefined) | inactive: -6.88%
COc1ccc(NC(=O)C2CCCN(S(=O)(=O)c3c(C)n[nH]c3C)C2)cc1OC (centres undefined) | inactive: -28.3%
Cc1cccc(NC(=O)CN2c3ccccc3S(=O)(=O)c3ccccc32)c1C | inactive: -25.7%
CCC(=O)N1CCc2cc(S(=O)(=O)NC(C(=O)NCCc3ccc(Cl)cc3)C(C)C)ccc21 (centres undefined) | inactive: 18.3%
Cn1nnnc1SCCNCc1ccc(OCc2ccccc2)cc1 | inactive: -0.983%

Compound | activity change, positive = activation
COC(=O)c1sccc1S(=O)(=O)N(CC(=O)NCc1ccccc1)c1ccc(C)c(C)c1 | inactive: -33.7%
COc1ccc(NC(=O)CSc2nnc3scc(-c4ccc(Cl)cc4)n23)cc1 | inactive: 1.81%
CCOC(=O)c1c(C)c(-c2ccccc2)n(CC(=O)Nc2cccc(F)c2)c1C | inactive: -17.9%
CCOc1ccc(NC(=O)CCS(=O)(=O)c2ccc(Br)s2)cc1 | inactive: -20.6%
Cc1cccc(NC(=O)CN2C(=O)COc3ccc(S(=O)(=O)N4CCC(C)CC4)cc32)c1C | inactive: -24.4%
CCN(CC)CCCNC(=O)c1nn(-c2ccc(OC)c(Cl)c2)c(=O)c2c1c1ccccc1n2C | inactive: -9.31%
Cc1ccc(CNC(=O)Cn2c(=O)n(-c3ccc(C)c(F)c3)c(=O)c3sc4ccccc4c32)cc1 | inactive: -14.8%
Cc1ccc(S(=O)(=O)N(CC(=O)N2CCc3ccccc3C2)c2ccc(C)c(C)c2)cc1 | inactive: -19.5%
CCOC(=O)c1ccccc1NC(=O)N1CCCN(S(=O)(=O)c2ccc3c(ccn3CC)c2)CC1 | inactive: -34.8%
Cc1cccc(-c2nc(CCNC(=O)c3ccccc3Br)cs2)c1 | inactive: -24%
CCOc1ccc(-c2nc3c(C#N)c[nH]n3c2NC2CCCCC2)cc1 | inactive: -10.5%
CCc1ccc(CNC(=O)C2CCCN(c3nn4cc(-c5ccc(F)cc5)nc4s3)C2)cc1 (centres undefined) | inactive: -72.5%
CCOC(=O)C1CCN(C(=O)C2CCN(c3nnc(C)c4c(C)n(-c5ccccc5)nc34)CC2)CC1 | inactive: -7.88%
CC1(C)CO[C@@H](CC(=O)O)CN1 | inactive: -5.12%
CCCC(=O)Nc1cc(C(=O)NCc2ccc(OC)cc2)ccc1S(=O)(=O)c1ccc(Cl)cc1 | inactive: 1.22%
Cc1nn(CC(=O)NCc2ccccc2Cl)c(=O)c2cccn12 | inactive: 9.46%
Cc1cc(C)n(-c2nnc(Nc3ccc(C(C)C)cc3)c3ccccc23)n1 | inactive: -17.1%
NCCNC(=O)c1ccc(Cl)cn1 | inactive: -5.43%
COc1ccc(CNCc2ccc3c(c2)n(C)c(=O)n3C)cc1 | inactive: -8.78%
COc1cccc(C(=O)NC(=O)Nc2ccc(-n3nc(C(F)(F)F)cc3C(F)(F)F)cc2)c1 | inactive: -6.03%
CC(=O)c1ccc(NC(=O)C2=CC(c3cccs3)=NS(=O)(=O)N2C)cc1 | inactive: -9.2%
Cc1nc2c(c(C)nn2-c2ccccc2)c(C)c1CCC(=O)Nc1ccc(F)cc1 | inactive: -25.6%
COc1cc(Nc2nc(SCc3cccc(Cl)c3)nc3ccccc23)cc(OC)c1 | inactive: -25.5%
Fc1ccc(Nc2c3c(nc4nncn24)CCC3)cc1 | inactive: -14.2%

Compound | activity change, positive = activation
COc1ccc(NC(=O)C2CCCN(S(=O)(=O)c3ccc(Cl)cc3)C2)cc1 (centres undefined) | inactive: -10.3%
Cc1ccc(C)c(N2CCN(c3nccn4nc(-c5ccc(Br)cc5)cc34)CC2)c1 | inactive: -7.27%
Cc1ccc(Cl)cc1NC(=O)C(NS(=O)(=O)c1cccc2nsnc12)c1ccccc1 (centres undefined) | inactive: -12.5%
O=C(COCc1cc(-c2cccs2)on1)NCc1ccccc1Cl | inactive: -5.44%
COc1cc(C2c3c(oc4ccccc4c3=O)C(=O)N2c2nc(C)c(C)s2)ccc1O (centres undefined) | inactive: -16.2%
Cc1nc2nc(NC(=O)c3ccc(F)cc3)[nH]n2c(=O)c1Cc1ccccc1 | inactive: -6.4%
O=C(NCc1ccccc1F)C1CCN(Cc2cc3ccccc3n2Cc2cccc(Cl)c2)CC1 | inactive: -20.3%
Cc1c(C(=O)OC2CCCCC2)[nH]c2c1C(=O)CC(c1ccccc1Cl)C2 (centres undefined) | inactive: -35.2%
Cn1c(=O)oc2cc(S(=O)(=O)CCC(=O)NCCc3ccccc3)ccc21 | inactive: 10.4%
CC(=O)c1cc(-c2ccc(F)cc2)n(CC(=O)NC(C)c2ccccc2)c1C (centres undefined) | inactive: -7.55%
Cc1ccccc1NC(=O)Nc1ccc2nc(N3CCN(C)CC3)cc(C)c2c1 | inactive: -11.6%
Cc1cccn2c(=O)c(/C=C(\C#N)c3nc4ccccc4s3)c(Oc3ccc(Br)cc3)nc12 | inactive: -4.61%
COc1ccccc1Nc1nn2c(=O)c3ccc(C(=O)Nc4ccc(F)cc4)cc3nc2s1 | inactive: -4.93%
NC(=O)c1cc(S(=O)(=O)NCc2ccc(Br)cc2)cs1 | inactive: -5.62%
CCOc1ccc2oc(=O)cc(CN3CCN(C(=O)c4cccc(F)c4)CC3)c2c1 | inactive: -29.1%
CCCN(CCC)CCNC(=O)Cn1ncc2c([nH]c3ccc(C)cc32)c1=O | inactive: -3.49%
Cc1cccc(C(=O)O)c1O | inactive: 1.58%
CCc1cccc(-n2c(=O)c3cccnc3n2CC(=O)NCc2ccccc2Cl)c1 | inactive: -17.1%
CCOC(=O)c1[nH]c(C)c(CCC(=O)NCc2ccc(C)cc2)c1C | inactive: -6.73%
CCN(c1ccccc1)S(=O)(=O)c1ccc(NC(=O)c2cc(=O)c3ccc(C)c(C)c3o2)cc1 | inactive: 0%
CCC=CC[C@H]1C(=O)CC[C@@H]1CC(=O)OC | inactive: -4.41%
Cc1ccc2c(CC(=O)Nc3c(C(=O)c4ccc(F)cc4)oc4ccccc34)coc2c1 | inactive: 5.88%
Nc1nc(Cl)nc2c1ncn2[C@H]1C[C@H](O)[C@@H](CO)O1 | inactive: -21.1%
Cn1cc(C(=O)[C@@H]2CCc3nc[nH]c3C2)c2ccccc21 | inactive: -9.05%

Compound | activity change, positive = activation
CCC(=O)OCc1cnc(C)c2oc(=O)c(C(=O)Nc3ccc(CC)cc3)cc12 | inactive: -4.16%
CC(NC(=O)C1CCN(C(=O)N2CCOc3ccc(Cl)cc32)CC1)c1ccccc1 (centres undefined) | inactive: -12.4%
COc1ccc(-c2nc3c(c(SCc4cc(C)ccc4C)n2)Cc2c(CO)cnc(C)c2O3)cc1 | inactive: -14.5%
COc1ccc(N2CCN(C(=O)c3nn(C)c4c3CS(=O)(=O)c3ccccc3-4)CC2)cc1 | inactive: -3.05%
COc1ccc(CCNC(=O)CS(=O)Cc2nc(-c3ccc(C)cc3)oc2C)cc1OC (centres undefined) | inactive: -17.3%
O=C(CCSCc1ccc(Cl)cc1)N1CCN(c2ccccc2F)CC1 | inactive: -9.66%
Cc1ccc(CNc2nc3c(S(=O)(=O)c4ccc(C)c(C)c4)nnn3c3ccc(Cl)cc23)cc1 | inactive: 19%
O=C(CN1CCN(c2ccc(Cl)cc2)CC1)Nc1ccc(Cl)c(C(F)(F)F)c1 | inactive: -20.7%
Cc1ccc(CSc2oc(-c3ccco3)nc2S(=O)(=O)c2ccc(Br)cc2)cc1 | inactive: -6.53%
CC1CCN(C(=O)CSc2nc3c([nH]c4ccccc43)c(=O)n2-c2ccccc2)CC1 | inactive: -7.47%
Cc1ccc(CNC(=O)CCn2ccc3cc(S(=O)(=O)N4CCCC4)ccc32)cc1 | inactive: -24.8%
COc1ccccc1NC(=O)CSc1nnc(-c2nonc2NC(C)=O)n1-c1ccccc1 | inactive: -12.3%
CCc1ccc(NC(=O)Cn2c(=O)n(Cc3nc(C)no3)c(=O)c3cc4c(cc32)OCO4)cc1 | inactive: -7.6%
CCOc1ccc(-n2c(=O)c3c4c(sc3n(Cc3cc(=O)n5cc(Cl)ccc5n3)c2=O)CCC4)cc1 | inactive: 5.25%
O=C(/C=C\c1ccc2c(c1)OCO2)NC1CC(=O)N(c2ccc(F)cc2)C1 (centres undefined) | inactive: -15.2%
CC1CCN(S(=O)(=O)c2cc(C(=O)NCCc3ccccc3)n(C)c2)CC1 | inactive: -23.9%
CC(C)(C)c1ccc(C(=O)Nc2cc(-c3ccccc3)nn2-c2ccccc2)cc1 | inactive: -6.16%
Cc1ccc(C)c(N2CCN(C(=O)c3cc4cc5ccc(C)cc5nc4s3)CC2)c1 | inactive: 3.77%
O=C(O)COc1ccccc1C1Nc2ccccc2-c2nnc(SCc3ccc(Cl)cc3)nc2O1 (centres undefined) | inactive: -18.4%
Cc1ccc(C)c(N2CCN(C(=O)C3CCC(CNS(=O)(=O)c4ccc(Br)s4)CC3)CC2)c1 (centres undefined) | inactive: -31.4%
COc1cccc(NC(=O)Cn2c(=O)n(CCCCC(=O)NCc3ccc4c(c3)OCO4)c(=O)c3ccccc32)c1 | inactive: -25.2%
CCCS(=O)(=O)N1CC(=O)N(c2cc(C)cc(C)c2)C(C)(C(=O)NC2CCCCCC2)C1 (centres undefined) | inactive: -10.6%
